In article PMC5468325 (2017):

Biological target: T1, Eu-INSL3 (Homo sapiens, UniProt P51460)
T1 chain 1: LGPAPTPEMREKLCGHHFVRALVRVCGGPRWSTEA
T1 chain 2: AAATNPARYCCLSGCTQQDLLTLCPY
Test: saturation whole cell binding

Kd: 1 nM
B1: RXFP2 (protein)
chain: MIVFLVFKHLFSLRLITMFFLLHFIVLINVKDFALTQGSMITPSCQKGYFPCGNLTKCLPRAFHCDGKDDCGNGADEENCGDTSGWATIFGTVHGNANSVALTQECFLKQYPQCCDCKETELECVNGDLKSVPMISNNVTLLSLKKNKIHSLPDKVFIKYTKLKKIFLQHNCIRHISRKAFFGLCNLQILYLNHNCITTLRPGIFKDLHQLTWLILDDNPITRISQRLFTGLNSLFFLSMVNNYLEALPKQMCAQMPQLNWVDLEGNRIKYLTNSTFLSCDSLTVLFLPRNQIGFVPEKTFSSLKNLGELDLSSNTITELSPHLFKDLKLLQKLNLSSNPLMYLHKNQFESLKQLQSLDLERIEIPNINTRMFQPMKNLSHIYFKNFRYCSYAPHVRICMPLTDGISSFEDLLANNILRIFVWVIAFITCFGNLFVIGMRSFIKAENTTHAMSIKILCCADCLMGVYLFFVGIFDIKYRGQYQKYALLWMESVQCRLMGFLAMLSTEVSVLLLTYLTLEKFLVIVFPFSNIRPGKRQTSVILICIWMAGFLIAVIPFWNKDYFGNFYGKNGVCFPLYYDQTEDIGSKGYSLGIFLGVNLLAFLIIVFSYITMFCSIQKTALQTTEVRNCFGREVAVANRFFFIVFSDAICWIPVFVVKILSLFRVEIPDTMTSWIVIFFLPVNSALNPILYTLTTNFFKDKLKQLLHKHQRKSIFKIKKKSLSTSIVWIEDSSSLKLGVLNKITLGDSIMKPVS
modifications: Eu-labeled INSL3
